{"source": "the supplement of paper PMC10126150", "note": "Sequences with one replicate were seen in a single cluster, so their values are uncertain.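 Also: ATP exposure 15 min at 22 °C before imaging.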", "data": [{"tested_on": "ATP", "experiment": "switch fluorescence ratio, 500 uM ATP over buffer (Cy3 cluster intensity, sum of 5 cycles each) (fold (ratio)); higher = stronger signal-on switching upon ATP binding; sequences stand for … in TCGTCGGCAGCGTCAGATGTGTATAAGAGACAGTTTTTTTTTTTTTTTTTTTTTTTTT…TC", "settings": "aptamer strand: ATP DNA aptamer (quencher-CACCTGGGGGAGTATTGCGGAGGAAGG + anchor), 100 nM annealed; ATP concentration: 500 uM; one replicate", "outline": "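Imaging in selection buffer was followed by imaging after 15 min with 500 uM ATP at 22 °C, for Cy3-labelled switching-strand clusters annealed to 100 nM quencher-labelled ATP aptamer on a modified Illumina MiSeq flow-cell. Five of these buffer/ATP cycles ran, separated by NaOH stripping and re-annealing. The fluorescence ratio per cluster is summed target-cycle over summed buffer-cycle Cy3 intensity, averaged per switch-domain sequence; clusters outside 100-1000 RFU were removed.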", "values": [{"sequence": "TCGGTGTAGC", "switch fluorescence ratio": 0.997}, {"sequence": "TCGGTGTCTT", "switch fluorescence ratio": 1.01}, {"sequence": "TCGGTTATG", "switch fluorescence ratio": 1.01}, {"sequence": "TCGGTTATTG", "switch fluorescence ratio": 0.992}, {"sequence": "TCGTAAACAA", "switch fluorescence ratio": 1.02}, {"sequence": "TCGTAAATAT", "switch fluorescence ratio": 1.09}, {"sequence": "TCGTACAG", "switch fluorescence ratio": 1.03}, {"sequence": "TCGTACCCCG", "switch fluorescence ratio": 1.01}, {"sequence": "TCGTACGTAT", "switch fluorescence ratio": 1.02}, {"sequence": "TCGTACGTTA", "switch fluorescence ratio": 1.09}, {"sequence": "TCGTAGATCC", "switch fluorescence ratio": 0.981}, {"sequence": "TCGTAGTTCG", "switch fluorescence ratio": 1.1}, {"sequence": "TCGTATAAGT", "switch fluorescence ratio": 1.01}, {"sequence": "TCGTATATGT", "switch fluorescence ratio": 1.01}, {"sequence": "TCGTATCTAT", "switch fluorescence ratio": 1}, {"sequence": "TCGTCAAATG", "switch fluorescence ratio": 0.994}, {"sequence": "TCGTCATGA", "switch fluorescence ratio": 0.959}, {"sequence": "TCGTCCGAGC", "switch fluorescence ratio": 1.56}, {"sequence": "TCGTCCGCGG", "switch fluorescence ratio": 4.2}, {"sequence": "TCGTCGCATG", "switch fluorescence ratio": 1.13}, {"sequence": "TCGTCGGTCC", "switch fluorescence ratio": 1.02}, {"sequence": "TCGTCGTCT", "switch fluorescence ratio": 0.98}, {"sequence": "TCGTCGTCTT", "switch fluorescence ratio": 0.98}, {"sequence": "TCGTCTAGTA", "switch fluorescence ratio": 0.962}, {"sequence": "TCGTGCAGA", "switch fluorescence ratio": 0.993}, {"sequence": "TCGTGCTACG", "switch fluorescence ratio": 1.03}, {"sequence": "TCGTGGATAG", "switch fluorescence ratio": 0.977}, {"sequence": "TCGTTAGACT", "switch fluorescence ratio": 1.02}, {"sequence": "TCGTTAGTAG", "switch fluorescence ratio": 0.978}, {"sequence": "TCGTTCCCAG", "switch fluorescence ratio": 1.04}, {"sequence": "TCGTTGCACT", "switch fluorescence ratio": 0.996}, {"sequence": "TCGTTTATCG", "switch fluorescence ratio": 1.02}, {"sequence": "TCGTTTGGGA", "switch fluorescence ratio": 1.02}, {"sequence": "TCTAAAAAAT", "switch fluorescence ratio": 0.947}, {"sequence": "TCTAAATGGT", "switch fluorescence ratio": 0.987}, {"sequence": "TCTAAATTGT", "switch fluorescence ratio": 0.976}, {"sequence": "TCTAACATGA", "switch fluorescence ratio": 1}, {"sequence": "TCTAACTCGA", "switch fluorescence ratio": 1.03}, {"sequence": "TCTAAGAGAG", "switch fluorescence ratio": 1.04}, {"sequence": "TCTAAGGAGC", "switch fluorescence ratio": 1.05}, {"sequence": "TCTAAGGCAT", "switch fluorescence ratio": 1.02}, {"sequence": "TCTAATACAT", "switch fluorescence ratio": 1.01}, {"sequence": "TCTAATCCCA", "switch fluorescence ratio": 1.15}, {"sequence": "TCTAATTGT", "switch fluorescence ratio": 1}, {"sequence": "TCTACAGAAC", "switch fluorescence ratio": 1.04}, {"sequence": "TCTACTAGCG", "switch fluorescence ratio": 1.01}, {"sequence": "TCTACTATGG", "switch fluorescence ratio": 1}, {"sequence": "TCTACTGAGG", "switch fluorescence ratio": 1.02}, {"sequence": "TCTACTGCTA", "switch fluorescence ratio": 1.42}, {"sequence": "TCTAGAATTG", "switch fluorescence ratio": 0.963}, {"sequence": "TCTAGAGTCG", "switch fluorescence ratio": 0.989}, {"sequence": "TCTAGCAGAT", "switch fluorescence ratio": 1.04}, {"sequence": "TCTAGCCATT", "switch fluorescence ratio": 0.991}, {"sequence": "TCTAGCTAAC", "switch fluorescence ratio": 1.42}, {"sequence": "TCTAGGGATC", "switch fluorescence ratio": 0.979}, {"sequence": "TCTAGGGGCA", "switch fluorescence ratio": 0.947}, {"sequence": "TCTAGTAACC", "switch fluorescence ratio": 1.06}, {"sequence": "TCTAGTACAG", "switch fluorescence ratio": 1.02}, {"sequence": "TCTAGTTTGA", "switch fluorescence ratio": 0.972}, {"sequence": "TCTATAATTA", "switch fluorescence ratio": 0.988}, {"sequence": "TCTATAGGGA", "switch fluorescence ratio": 1.03}, {"sequence": "TCTATGGAAC", "switch fluorescence ratio": 1.06}, {"sequence": "TCTATGGATT", "switch fluorescence ratio": 0.99}, {"sequence": "TCTATGGCAA", "switch fluorescence ratio": 1.61}, {"sequence": "TCTATGTGGA", "switch fluorescence ratio": 0.998}, {"sequence": "TCTATTCAA", "switch fluorescence ratio": 0.985}, {"sequence": "TCTCAAATGC", "switch fluorescence ratio": 1.54}, {"sequence": "TCTCAACGCG", "switch fluorescence ratio": 1.02}, {"sequence": "TCTCAAGACT", "switch fluorescence ratio": 1.09}, {"sequence": "TCTCACCTGC", "switch fluorescence ratio": 1.06}, {"sequence": "TCTCACGAAA", "switch fluorescence ratio": 1.19}, {"sequence": "TCTCATGACA", "switch fluorescence ratio": 1.04}, {"sequence": "TCTCATGTCC", "switch fluorescence ratio": 0.97}, {"sequence": "TCTCATTAGC", "switch fluorescence ratio": 0.997}, {"sequence": "TCTCCGGGCG", "switch fluorescence ratio": 1.31}, {"sequence": "TCTCCTGAAT", "switch fluorescence ratio": 0.992}, {"sequence": "TCTCGACCCC", "switch fluorescence ratio": 1.09}, {"sequence": "TCTCGAGACC", "switch fluorescence ratio": 1}, {"sequence": "TCTCGAGGTA", "switch fluorescence ratio": 1.01}, {"sequence": "TCTCGCCGAT", "switch fluorescence ratio": 1.07}, {"sequence": "TCTCGGATGA", "switch fluorescence ratio": 1.04}, {"sequence": "TCTCGGGTCG", "switch fluorescence ratio": 1.05}, {"sequence": "TCTCGTTACT", "switch fluorescence ratio": 1.06}, {"sequence": "TCTCGTTGAC", "switch fluorescence ratio": 3.3}, {"sequence": "TCTCTAAACG", "switch fluorescence ratio": 1.06}, {"sequence": "TCTCTCAGAA", "switch fluorescence ratio": 0.99}, {"sequence": "TCTCTCGTAA", "switch fluorescence ratio": 2.48}, {"sequence": "TCTCTGCACG", "switch fluorescence ratio": 1.72}, {"sequence": "TCTCTGGTAA", "switch fluorescence ratio": 1.22}, {"sequence": "TCTCTTCAAT", "switch fluorescence ratio": 1.41}, {"sequence": "TCTGAAGGCA", "switch fluorescence ratio": 1.13}, {"sequence": "TCTGAAGGTC", "switch fluorescence ratio": 1.1}, {"sequence": "TCTGAATAAA", "switch fluorescence ratio": 2.45}, {"sequence": "TCTGACGTTA", "switch fluorescence ratio": 1.81}, {"sequence": "TCTGACTTTA", "switch fluorescence ratio": 1.14}, {"sequence": "TCTGAGACAT", "switch fluorescence ratio": 1.01}, {"sequence": "TCTGAGATTT", "switch fluorescence ratio": 0.992}, {"sequence": "TCTGATAATT", "switch fluorescence ratio": 0.977}, {"sequence": "TCTGATGCTG", "switch fluorescence ratio": 1.01}, {"sequence": "TCTGCAGACT", "switch fluorescence ratio": 1.17}]}]}
